In PubChem BioAssay AID686979 (National Center for Advancing Translational Sciences (NCATS), 2013):
In all, about 420,000 compounds went through this assay and about 50,000 (12%) were called active. The shares of active, inactive and inconclusive entries below differ from those in the screen. Calls follow the shape of the dose curve; as a rule, active = well fitted inhibition curve with a large enough effect; inconclusive = small, poorly fitted or top-dose-only effect; inactive = flat fitted curve, though single readings scatter. Potencies of inconclusive entries are left out as doubtful fits.

Test: qHTS for Inhibitors of human tyrosyl-DNA phosphodiesterase 1 (TDP1): qHTS in cells in presence of CPT; also: nearly all actives have a fitted effect of over 55% in size
Conditions: chicken DT40 Tdp1-/-;hTDP1 cells + 20 nM CPT, ATP luminescence, 48 h; series mostly up to 46.2 µM
Summary of the method: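 Chicken DT40 Tdp1-/- cells stably complemented with human TDP1 were seeded at 400 cells/well in medium containing 20 nM camptothecin, exposed to pin-transferred compounds, and grown at 37 °C for at least 48 hr. Viability was read as ATP luminescence.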
Potency is read from the fitted curve at half-maximal effect; tags tell the direction and shape of the fitted curve.

SMILES | Potency
COc1ccccc1-c1nc2ccc(Cl)cc2c(=O)n1O | inactive
COc1cc(/C=N/NC(=O)Cn2nnc3ccccc32)ccc1O | inactive
O=C(NCC1Cc2cc(F)cc(-c3cnccn3)c2O1)c1cccc(-c2ccccc2F)c1 (stereo unspecified) | active: 11.6 µM
COc1cc(Nc2ccc(S(=O)(=O)N3CCN(C)CC3)cc2[N+](=O)[O-])cc(OC)c1 | inconclusive [inhibitor, single point]
O=c1oc2cc(O)ccc2c2ccccc12 | inactive
O=C(CSc1ccccc1)Nc1ccc2c(c1)C(=O)NC2=O | inactive
O=C(Nc1nc2ccccc2[nH]1)NC1CCCCC1 | inconclusive [inhibitor, single point]
Cc1ccc(-c2c[n+](Cc3ccc(Cl)c(Cl)c3)c3n2CCC3)cc1 | active: 0.58 µM
O=C(c1cnc(N2CCOCC2)c2ccccc12)N1CCN(c2ccc(F)cc2)CC1 | active: 14.6 µM
CCCCCn1nc(C(=O)N(CC)c2c(N)n(CCCC)c(=O)[nH]c2=O)c2ccccc2c1=O | inactive
Cc1cccc(N2C(=O)CSC23C(=O)N(CC(=O)NCCc2ccccc2)c2ccccc23)c1 (stereo unspecified) | inconclusive [inhibitor, single point]
CCC(=O)Nc1nnc(SCC(=O)c2ccc3c(c2)Cc2ccccc2-3)s1 | inconclusive [inhibitor, partial curve, poor fit]
Cn1cncc1C#Cc1c(C=O)n(C)c2ccccc12 | inconclusive [inhibitor, single point]
CCOc1ccccc1NC(=O)CSc1n[nH]c(=O)n1-c1ccccc1 | inconclusive [inhibitor, single point]
O=C(NCc1ccccc1)/C(=C/c1ccco1)NC(=O)c1ccco1 | inactive
CC(=O)c1cccc(-c2cnc3c(NC=O)cc(-c4ccccc4)cn23)c1 | inconclusive [inhibitor, single point]
CCCCn1nc(C(=O)N[C@@H](CCSC)c2nc3ccccc3[nH]2)c2ccccc2c1=O | active: 25.9 µM
Cc1ccccc1C(=O)Nc1cc(-c2cc(C(C)(C)C)oc2C)nn1C | inconclusive [inhibitor, single point]
CC(CCN1CCN=C1Nc1ccccc1)c1ccccc1 (stereo unspecified) | inconclusive [inhibitor, single point]
Oc1[nH]c2ccccc2c1N=Nc1nncc2ccccc12 | inconclusive [inhibitor, single point]
COc1ccc(N2CN=C3SCC(=O)N3C2)cc1 | inconclusive [inhibitor, single point]
c1ccc2c(-c3[nH]ncc3CNCCCn3ncc4ccccc43)cccc2c1 | active: 18.4 µM
O=C(NCc1ccccc1)c1cccc(NC(=O)C2CCCC2)c1 | inconclusive [inhibitor, partial curve, poor fit]
Nc1nc(CN2CCN(c3ccc(F)cc3)CC2)nc(N2CCCc3ccccc32)n1 | inconclusive [inhibitor, single point]
Cc1c(CC(=O)N2CCCCC2)c(=O)oc2c(C)c(O)ccc12 | inactive
O=C(CCC1CCCCC1)NCCS(=O)(=O)N1CCN(c2ccccc2F)CC1 | inconclusive [inhibitor, single point]

SMILES | Potency
Cc1cc2c(cc1S(=O)(=O)CCC(=O)NCc1ccccc1)OCC(=O)N2 | inactive
O=C(NC(=S)N1CCOCC1)c1cn(-c2ccccc2)nc1-c1ccccc1 | inconclusive [inhibitor, single point]
Cc1cc(N2CCN(C)CC2)ccc1NC(=O)c1cccc(S(=O)(=O)N2CCc3ccccc3C2)c1 | active: 23.1 µM
COc1ccc(C2CC(C(F)(F)F)n3nc(C(=O)O)cc3N2)cc1OC (stereo unspecified) | inactive
C=CCn1c2ccccc2c2nnc(SCCN3CCCCC3)nc21 | inactive
COc1ccc(NC(=S)N(CCCN2CCC(C)CC2)Cc2cccs2)cc1Cl | active: 25.9 µM
O=C(NCCc1cccs1)c1ccc(Cl)c(Cl)c1 | inactive
COC(=O)c1sc(NC(=S)NC(=O)c2ccccc2C)nc1C | inactive
O=C(c1ccco1)N1CCN(Cc2csc(-c3ccccc3Cl)n2)CC1 | inconclusive [inhibitor, single point]
N[C@H](C(=O)O)[C@H]1C[C@H]1C(=O)O | inactive
Cn1cc(/C=C(\NC(=O)c2ccccc2Cl)C(=O)N2CCOCC2)c2ccccc21 | inactive
O=C(OCc1ccccc1F)c1ccc(-c2nnn(Cc3ccccc3)n2)cc1 | inconclusive [inhibitor, partial curve]
CCN(CC)c1ccc(NC(=O)C(NS(=O)(=O)c2cccs2)C(C)C)c(C)c1 (stereo unspecified) | active: 20.6 µM
CCc1nc2c(OCCC3CCCCC3)cccn2c1N(C)C(=O)c1ccc(C)cc1 | active: 14.6 µM
COCCCNC(=S)NNC(=S)Nc1ccccc1 | inactive
COc1ccccc1N(CC(=O)NCCSCc1cccc(C)c1)S(=O)(=O)c1ccccc1 | inconclusive [inhibitor, single point]
O=c1c2ccccc2c(-c2ccc(F)cc2)nn1-c1ccc(C(F)(F)F)cc1 | inconclusive [inhibitor, partial curve]
CCC(C(=O)NCc1ccc(F)cc1)N(Cc1ccco1)C(=O)c1snc(C(N)=O)c1N (stereo unspecified) | inactive
CCn1nc(-c2ccccc2)c(-c2ccccc2)c(C(=O)Nc2ccccc2C(N)=O)c1=O | inconclusive [inhibitor, single point]
O=C(O)c1cc2cc(Cl)ccc2oc1=O | inactive
Cc1cc(C)c2c(N=NN3CCOCC3)[nH]nc2n1 | inactive
COc1ccccc1N1CCN(C2CCCN(S(=O)(=O)c3cccc(Cl)c3)C2)CC1 (stereo unspecified) | inconclusive [inhibitor, single point]
Cc1ccc(C(=O)N[C@H](C(=O)Nc2cccc(S(=O)(=O)N3CCOCC3)c2)C(C)C)cc1 | inactive
Cc1nc(Nc2cccc(O)c2)c2oc3ccccc3c2n1 | inconclusive [inhibitor, single point]
O=C(NCc1ccccc1)c1cc(C2CCCCN2C(=O)OCCF)on1 (stereo unspecified) | inactive
CCCCn1c(CN2CCN(c3cccc(Cl)c3)CC2)nc2c1c(=O)[nH]c(=O)n2C | active: 3.26 µM

SMILES | Potency
COc1ccc(-n2nnnc2C2CCN(S(=O)(=O)c3cccc(Cl)c3C)CC2)cc1 | active: 20.6 µM
O=C(NCCCN1CCOCC1)c1cc(-c2ccc(Cl)s2)nc2ccccc12 | inconclusive [inhibitor, single point]
CCOC(=O)C1=C(C)OC(N)=C(C#N)C1c1ccc(OC)c(CSc2ccccn2)c1 (stereo unspecified) | inconclusive [inhibitor, single point]
CC(C)C1C(=O)N(Cc2cn(CCC3OCCO3)nn2)CCS(=O)(=O)N1Cc1ccc(-c2ccc(Cl)c(Cl)c2)cc1 (stereo unspecified) | active: 2.06 µM
CC(=O)c1ccc(N2CCN(c3ncc(C(F)(F)F)cc3Cl)CC2)cc1 | inconclusive [inhibitor, partial curve]
CCOC(=O)c1cccc(NC(=O)CSc2nnc(-c3cccnc3)n2C)c1 | inactive
COc1ccccc1CN1C[C@@H]2C[C@@H](c3ccccc3C)N3CCC[C@@]23C1=O | inconclusive [inhibitor, single point]
CCN1CCN(C(=O)N(c2ccccc2)c2ccccc2)CC1 | inactive
NC(=O)c1cc(N2C(=O)C=CC2=O)ccc1Cl | active: 13 µM
CC1(C(=O)OCC(=O)Nc2ccc3ccccc3c2)CC1(Cl)Cl (stereo unspecified) | inconclusive [inhibitor, single point]
Cc1ccc(C)c(N2CCN(C(=O)NCc3noc4ccccc34)CC2)c1 | inconclusive [inhibitor, single point]
Cc1csc(NC(=O)C2CCCN(S(=O)(=O)c3ccc(Br)s3)C2)n1 (stereo unspecified) | active: 16.4 µM
Cc1ccc(NC(=S)N2CCN(Cc3ccccc3)CC2)c(C)c1 | inconclusive [inhibitor, single point]
O=C(NCc1cccnc1)c1ccc(S(=O)(=O)Nc2ccccc2)cc1 | inactive
Cc1ccnc(SC2CC(=O)N(c3ccc(Br)cc3)C2=O)n1 (stereo unspecified) | inconclusive [inhibitor, single point]
COC(=O)C(CO)Nc1ncnc2onc(-c3ccc(F)cc3)c12 (stereo unspecified) | inactive
CC(=O)N1CCN(CC(=O)Nc2ccc(Cl)c(S(=O)(=O)N(C)C)c2)CC1 | inconclusive [inhibitor, single point]
O=[N+]([O-])c1cccc(-c2nnc3c4ccccc4c4ccccc4n23)c1 | inconclusive [inhibitor, single point]
CCc1nn2c(N(C)CCO)cc(C)nc2c1-c1ccc(F)cc1 | inconclusive [inhibitor, partial curve]
COc1ccc2oc(=O)c(C(=O)NCc3ccco3)cc2c1 | inactive
O=C(C[n+]1ccccc1)N/N=C/c1ccc(Cl)c(Cl)c1 | inactive
COc1ccc(C(=O)N=C2SC3CS(=O)(=O)CC3N2Cc2ccccc2)cc1OC (stereo unspecified) | inconclusive [inhibitor, partial curve]
Oc1ccccc1-c1cc(-c2ccc3c(c2)OCCO3)n[nH]1 | inconclusive [inhibitor, single point]
CC(C)COC(=O)NCC12C=CC(O1)C1C(=O)N(c3ccc(Cl)cc3)C(=O)C12 (stereo unspecified) | active: 16.4 µM
